Data on 31 variants can be found in the GPR68 mutational scans of Howard et al. (2025).

B1: GPR68, Q15743 (parent)
chain: MGNITADNSSMSCTIDHTIHQTLAPVVYVTVLVVGFPANCLSLYFGYLQIKARNELGVYLCNLTVADLFYICSLPFWLQYVLQHDNWSHGDLSCQVCGILLYENIYISVGFLCCISVDRYLAVAHPFRFHQFRTLKAAVGVSVVIWAKELLTSIYFLMHEEVIEDENQHRVCFEHYPIQAWQRAINYYRFLVGFLFPICLLLASYQGILRAVRRSHGTQKSRKDQIQRLVLSTVVIFLACFLPYHVLLLVRSVWEASCDFAKGVFNAYHFSLLLTSFNCVADPVLYCFVSETTHRDLARLRGACLAFLTCSRTGRAREAYPLGAPEASGKSGAQGEEPELLTKLHPAFQTPNSPGSGGFPTGRLA

Series [1] covers variants of B1. The series is described as follows: cAMP reporter score (Enrich2 score, wild type = 0); higher = more signal; HEK293T, FACS bins.
In series [2] the parent is B1. The series is described as follows: surface expression score (Enrich2 score, wild type = 0); higher = more signal; HEK293T, FACS bins.

The least precise scores are not listed. Not listed are two conditions whose scores span a narrow range. In variant names, del marks residues removed and ins residues inserted between the two positions. For some assays here: The concentration of ogerin is not given here.

As for T5L, the cAMP reporter score in series [1] (pH 5.5) is -0.502; in series [1] (pH 6) it was -1.15; in series [1] (pH 6, modulator: ogerin) it was -1; in series [1] (pH 6.5, modulator: ogerin) it was -0.537. Further, in series [2], the surface expression score is -1.43.
The corresponding values for T5R are 1.17, 0.687, 1.44, 0.11 and -1.11.
The corresponding values for T5Y are -0.681, 0.136, -0.704, -0.436 and -1.34.
With T5S, the cAMP reporter score in series [1] (pH 5.5) is 0.034; in series [1] (pH 6), -0.346; in series [1] (pH 6, modulator: ogerin) it was 0.187; in series [1] (pH 6.5, modulator: ogerin), 0.478. Also, in series [2], the surface expression score was -0.721.
The corresponding values for T5C are 0.101, -0.108, -0.719, 0.226 and -1.38.
Turning to T5F, the cAMP reporter score was 0.342 in series [1] (pH 5.5); 1.33 in series [1] (pH 6); -0.359 in series [1] (pH 6.5, modulator: ogerin). In addition, the surface expression score in series [2] was -0.424.
With T5H, the cAMP reporter score is -1.03 in series [1] (pH 5.5); -1.09 in series [1] (pH 6); -1.13 in series [1] (pH 6, modulator: ogerin); -0.921 in series [1] (pH 6.5, modulator: ogerin). In series [2], the surface expression score was -1.95.
The corresponding values for G2_I4del are 0.492, 0.322, 0.427, 0.34 and -0.444.
G2M: the cAMP reporter score in series [1] (pH 5.5) is -0.513; in series [1] (pH 6, modulator: ogerin) it was -0.597; in series [1] (pH 6.5, modulator: ogerin), -0.626. For the same variant, the surface expression score in series [2] was -0.243.
For G2N, the cAMP reporter score in series [1] (pH 5.5) was 0.044; in series [1] (pH 6), 0.162; in series [1] (pH 6, modulator: ogerin), -0.271; in series [1] (pH 6.5, modulator: ogerin) it was -0.021. Also, the surface expression score in series [2] was determined as 0.011.
As to G2D, the cAMP reporter score was 0.048 in series [1] (pH 5.5); 0.332 in series [1] (pH 6); -0.005 in series [1] (pH 6, modulator: ogerin); 0.184 in series [1] (pH 6.5, modulator: ogerin). Moreover, in series [2], the surface expression score is -0.436.
In the case of G2W, the cAMP reporter score in series [1] (pH 5.5) was 0.544; in series [1] (pH 6), 0.311; in series [1] (pH 6, modulator: ogerin), 0.337; in series [1] (pH 6.5, modulator: ogerin) it was 0.422. The surface expression score in series [2] worked out at 0.433.
For G2S the same measures were 0.254, -0.175, 0.719, -0.393 and -0.025.
On to G2F, for which the cAMP reporter score is 0.073 in series [1] (pH 5.5); 1.13 in series [1] (pH 6); 1.08 in series [1] (pH 6, modulator: ogerin); 1.01 in series [1] (pH 6.5, modulator: ogerin). Moreover, the surface expression score in series [2] stood at 1.09.
On to G2V, for which the cAMP reporter score in series [1] (pH 5.5) is 0.161; in series [1] (pH 6), 0.067; in series [1] (pH 6, modulator: ogerin) it was 0.174; in series [1] (pH 6.5, modulator: ogerin), -0.049. In series [2], the surface expression score worked out at 0.043.
For G2K the same measures were 0.855, 0.611, 0.71, 0.854 and 0.984.
The corresponding values for G2E are -0.118, 0.442, -0.095, -0.341 and -0.031.
For the variant G2P, the cAMP reporter score in series [1] (pH 5.5) was 0.151; in series [1] (pH 6) it was -0.627; in series [1] (pH 6, modulator: ogerin), 0.013; in series [1] (pH 6.5, modulator: ogerin), 0.367. Also, the surface expression score in series [2] came out at 0.611.
As for G2R, the cAMP reporter score in series [1] (pH 5.5) came out at 0.968; in series [1] (pH 6), 0.248; in series [1] (pH 6, modulator: ogerin), 0.985; in series [1] (pH 6.5, modulator: ogerin), 0.307. Moreover, the surface expression score in series [2] was 0.771.
For G2H the same measures were 0.979, 0.159, 1.19, 0.72 and 1.26.
For G2I the same measures were -0.09, 0.355, -0.051, 0.402 and -0.31.
The corresponding values for G2Y are 0.495, 0.147, 0.512, 0.77 and 0.417.
G2Q: the cAMP reporter score in series [1] (pH 5.5) came to 0.697; in series [1] (pH 6), 0.262; in series [1] (pH 6, modulator: ogerin), 0.754; in series [1] (pH 6.5, modulator: ogerin) it was 0.308. Moreover, the surface expression score in series [2] was determined as 0.783.
In the case of G2L, the cAMP reporter score in series [1] (pH 5.5) was 0.451; in series [1] (pH 6), -0.596; in series [1] (pH 6, modulator: ogerin), 0.646; in series [1] (pH 6.5, modulator: ogerin), -0.195. Further, in series [2], the surface expression score was -0.054.
The corresponding values for G2T are 0.435, -0.357, -0.045, -0.025 and -0.965.
For the variant S12A, the cAMP reporter score is 0.353 in series [1] (pH 5.5); 0.028 in series [1] (pH 6); 0.323 in series [1] (pH 6, modulator: ogerin); 0.176 in series [1] (pH 6.5, modulator: ogerin). Besides, the surface expression score in series [2] stood at 0.408.
The corresponding values for S12C are -0.302, -1.17, -0.619, -0.482 and -0.823.
The corresponding values for N8_S9insG are 0.092, -0.335, 0.104, -0.016 and -0.07.
For T5del the same measures were -0.205, 1.03, -0.252, -0.255 and -1.18.
Take T5_A6insGSG: the cAMP reporter score in series [1] (pH 5.5) amounted to 0.413; in series [1] (pH 6, modulator: ogerin), 0.31; in series [1] (pH 6.5, modulator: ogerin), 0.236. Also, the surface expression score in series [2] worked out at 0.766.
In the case of M11_C13del, the cAMP reporter score is -0.88 in series [1] (pH 5.5); -0.971 in series [1] (pH 6); -1.36 in series [1] (pH 6, modulator: ogerin); -0.798 in series [1] (pH 6.5, modulator: ogerin). Besides, in series [2], the surface expression score was -1.72.
